Data from the supplement of paper PMC10600219.
Structures can show the parent of a compound that is named as a salt. Whole data set: some 2,800 compounds, median “cell viability relative to vehicle” near 1.1, cut for the lowest 2% near 0.19. The list shows a part of the results.

system: NCI-H2228 parental; experiment: cell viability relative to vehicle (fraction of vehicle); NCI-H2228 is an ALK-positive lung cancer line and DTP means drug-tolerant persister; higher = less growth inhibition; details: 100 nM; treatment time 6 days
In short: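 NCI-H2228 parental cells and drug-tolerant persister cells were plated in 384-well plates; the persisters had been generated with 1000 nM of a targeted drug over 13 days. One day later, the 3114-agent TargetMol anti-cancer compound library was added at 100 nM, with DMSO serving as vehicle. ATP was measured 6 days after that using the CellTiter-Glo 3D Cell Viability Assay. Values are cell viability expressed relative to vehicle-treated cells.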

| Compound | cell viability |
| --- | --- |
| O=C(NC[C@H](O)CN1CCc2ccccc2C1)c1ccnc(NC2CCC2)c1 | 0.666 |
| C#C[C@]1(O)CC[C@H]2[C@@H]3CCC4=CC(=O)CC[C@@H]4[C@H]3CC[C@@]21C [Norethindrone] | 1.17 |
| CC(C)[C@H](C(=O)Nc1ccc(C(=O)NO)cc1)c1ccccc1 | 0.605 |
| C#C[C@]1(OC(C)=O)CC[C@H]2[C@@H]3CCC4=C[C@@H](OC(C)=O)CC[C@@H]4[C@H]3CC[C@@]21C [Ethynodiol diacetate] | 1.11 |
| Oc1cc(-c2nc(-c3ccccc3)[nH]c2-c2ccncc2)ccc1Cl | 1.08 |
| CNC1CCC(N(Cc2cccc(-c3ccncc3)c2)C(=O)c2sc3ccccc3c2Cl)CC1 (configuration not stated) | 1.13 |
| NC(=O)c1ccc2nc(-c3ccc(Oc4ccc(Cl)cc4)cc3)[nH]c2c1 | 0.996 |
| Nc1ccc(S(=O)(=O)Nc2ncccn2)cc1 [Sulfadiazine] | 1.25 |
| CCCC(C)NC(=O)c1ccc(Cl)c(Cl)c1 (configuration not stated) | 1.06 |
| O=C1O[C@H]2[C@@H]3OC(=O)c4cc(O)c(O)c(O)c4-c4c(cc(O)c(O)c4O)C(=O)OC[C@H]2O[C@@H](OC(=O)c2cc(O)c(O)c(O)c2)[C@@H]3OC(=O)c2cc(O)c(O)c3c2[C@@H]2C1=CC(=O)[C@](O)(O3)C2(O)O [Geraniin] | 0.981 |
| O=[N+]([O-])c1cc(C(F)(F)F)cc([N+](=O)[O-])c1NNC(=S)Nc1ccc(F)cc1 | 1.09 |
| COc1cc2ncnc(Nc3ccc(Cl)cc3F)c2cc1OC | 0.988 |
| Oc1ccc(Nc2nc(-c3ccc(Cl)cc3)cs2)cc1 | 1.06 |
| N#Cc1ccc2[nH]c(O)c(-c3ccc(CN4CCOCC4)cn3)c2c1 | 1.09 |
| CNC(=O)c1c(C)oc2cc(Oc3ncnc4cc(OC)c(OC)cc34)ccc12 [Fruquintinib] | 1.06 |
| CO[C@H]1C[C@@H]2CC[C@@H](C)[C@@](O)(O2)C(=O)C(=O)N2CCCC[C@H]2C(=O)O[C@H]([C@H](C)C[C@@H]2CC[C@@H](O)[C@H](OC)C2)CC(=O)[C@H](C)/C=C(\C)[C@@H](O)[C@@H](OC)C(=O)[C@H](C)C[C@H](C)/C=C/C=C/C=C/1C [Rapamycin] | 0.833 |
| N[C@@H]1CCCN(c2c(/C=C3\SC(=O)NC3=O)cccc2-c2ccccc2)C1 | 0.816 |
| CCOc1ccccc1C(N)=O [2-Ethoxybenzamide] | 1.18 |
| COc1nccnc1NS(=O)(=O)c1ccc(NC(=O)/C=C/c2ccc([N+](=O)[O-])s2)cc1 [Necrosulfonamide] | 1.13 |
| CN(C)C(=O)c1ccc(S(=O)(=O)c2ccc(NC(=O)[C@@](C)(O)C(F)(F)F)c(Cl)c2)cc1 | 0.992 |
| C#C[C@]1(O)CC[C@H]2[C@@H]3CCc4cc(OC)ccc4[C@H]3CC[C@@]21C [Mestranol] | 1.09 |
| CC(C)NCC(O)c1ccc(NS(C)(=O)=O)cc1 (configuration not stated) [Sotalol hydrochloride] | 1.14 |
| CNc1ncc2cc(-c3cc(NC(=O)NCCC(C)(C)C)c(F)cc3C)c(C)nc2n1 | 0.861 |
| COc1ccc2cccc(CCNC(C)=O)c2c1 [Agomelatine] | 1.13 |
| C1=N/C2=N/c3ccc(OCCN4CCCC4)c(c3)COC/C=C/COCc3cccc(c3)C(=C1)N2 [Pacritinib] | 1.1 |
| Cc1[nH]c(/C=C2\C(=O)Nc3ccccc32)c(C)c1CCC(=O)O [Orantinib] | 1.16 |

| Compound | cell viability |
| --- | --- |
| CC(=O)N1CCN(c2ccc(OCC3COC(Cn4ccnc4)(c4ccc(Cl)cc4Cl)O3)cc2)CC1 (configuration not stated) [Ketoconazole] | 1.12 |
| CN(CCOc1ccc(NS(C)(=O)=O)cc1)CCc1ccc(NS(C)(=O)=O)cc1 [Dofetilide] | 1.2 |
| CNCC(O)c1ccc(O)c(O)c1 (racemic) [DL-Adrenaline Hydrochloride] | 0.979 |
| CCN(CC)CCCC(C)Nc1c2ccc(Cl)cc2nc2ccc(OC)cc12 (configuration not stated) [Quinacrine dihydrochloride] | 1.28 |
| CC(=O)c1cc(O)ccc1O [2-5-dihydroxyacetophenone] | 1 |
| COc1cc(OC)cc(N(CCNC(C)C)c2ccc3ncc(-c4cnn(C)c4)nc3c2)c1 [Erdafitinib] | 1.09 |
| O=C1C=C2C=C[C@@H](O)[C@H](O)[C@H]2O1 [griffonilide] | 1.11 |
| CCCCCCCCCCCCCCCC[N+](C)(C)CCN(Cc1ccc(OC)cc1)c1ncccn1 [Thonzonium Bromide] | 1.19 |
| O=C(O)P(=O)(O)O [Foscarnet sodium] | 1 |
| COc1cc2c(=O)c(-c3ccc(O)cc3)coc2cc1O[C@@H]1O[C@H](CO)[C@@H](O)[C@H](O)[C@H]1O [Glycitin] | 1.17 |
| CC(C)(C)NS(=O)(=O)c1cncc(-c2cc(F)c3nc(N)nn3c2)c1 | 1.07 |
| N#CCC(C1CCCC1)n1cc(-c2ncnc3[nH]ccc23)cn1 (configuration not stated) | 1.02 |
| CC1=C(C(=O)Nc2cc3cn[nH]c3cc2F)C(c2ccc(Cl)cc2F)N=C(c2ccnc(Cl)c2)N1 (configuration not stated) | 0.928 |
| Cc1ccc2c(Nc3ccc(Cl)cc3)nccc2c1Nc1ncccc1-c1ncnc2nc[nH]c12 [B-Raf inhibitor 1 dihydrochloride] | 1.05 |
| CC(C)(C)c1ccc(S(=O)(=O)Nc2ccc(-n3ccnc3)cc2)cc1 | 1.08 |
| Cc1cc(-c2nc(-c3ccc(OC(F)(F)F)cc3)no2)nn1Cc1ccnc(N2CCN(C3CC3)CC2)c1 | 0.73 |
| COC(=O)[C@H]1[C@H]2C[C@@H]3c4[nH]c5cc(OC)ccc5c4CCN3C[C@H]2C[C@@H](OC(=O)c2cc(OC)c(OC)c(OC)c2)[C@@H]1OC [Reserpine] | 0.905 |
| COc1cc2c(cc1OC)-c1cc3ccc(OC)c(OC)c3c[n+]1CC2 [Palmatine] | 1.12 |
| CNC(=C[N+](=O)[O-])NCCSCc1ccc(CN(C)C)o1 [Ranitidine Hydrochloride] | 1.28 |
| C=CCc1ccc(O)c(-c2ccc(O)c(CC=C)c2)c1 [Honokiol] | 0.995 |
| CC(C)C[C@H](NC(=O)[C@@H](O)[C@H](N)Cc1ccccc1)C(=O)O [Bestatin hydrochloride] | 1.16 |
| CC(C)C[C@H](NC(=O)[C@@H](O)[C@H](N)Cc1ccccc1)C(=O)O [Ubenimex] | 1.08 |
| O=c1c(-c2ccc(O)cc2)coc2cc(O)cc(O)c12 [Genistein] | 1.25 |
| Cc1cc(N2CCOCC2)ccc1Nc1nc(NC2CCCCC2)c2[nH]cnc2n1 | 1.29 |
| Cc1c(-c2ccc(N3CCc4cccc(C(=O)Nc5nc6ccccc6s5)c4C3)nc2C(=O)O)cnn1CC12CC3CC(CC(C3)C1)C2 | 0.797 |
| O=C(NOCCO)c1cc(CN2OCCCC2=O)c(F)c(F)c1Nc1ccc(I)cc1F | 0.779 |

| Compound | cell viability |
| --- | --- |
| CSc1cccc(Nc2ncc3cc(-c4c(Cl)cccc4Cl)c(=O)n(C)c3n2)c1 | 0.541 |
| CCOc1ccn(-c2ccc(F)cc2)c(=O)c1C(=O)Nc1ccc(Oc2ccnc(N)c2Cl)c(F)c1 | 1.03 |
| CCC(=O)NS(=O)(=O)c1ccc(-c2c(-c3ccccc3)noc2C)cc1 [Parecoxib] | 0.95 |
| Cc1nc(Nc2n[nH]c3c2CN(C(=O)N[C@H](CN(C)C)c2ccccc2)C3(C)C)c2sccc2n1 | 0.368 |
| CNC[C@H](O)c1cccc(O)c1 [Phenylephrine hydrochloride] | 1.05 |
| CC(C)C[C@H](NC(=O)CNC(=O)c1cc(Cl)ccc1Cl)B(O)O [Ixazomib] | 0.121 |
| N#Cc1ccc2ncnc(NC3CCC(N4CCOCC4)CC3)c2c1 (configuration not stated) | 1.16 |
| O=C(O[C@@H]1Cc2c(O)cc(O)cc2O[C@@H]1c1cc(O)c(O)c(O)c1)c1cc(O)c(O)c(O)c1 [(-)-Epigallocatechin Gallate] | 0.93 |
| C[C@@H]1O[C@@H](O[C@@H]2[C@@H](O)[C@H](OCCc3ccc(O)c(O)c3)O[C@H](CO)[C@H]2OC(=O)/C=C/c2ccc(O)c(O)c2)[C@H](O)[C@H](O)[C@H]1O [Verbascoside] | 1.03 |
| COC(=O)c1ccc2c(c1)NC(=O)/C2=C(\Nc1ccc(N(C)C(=O)CN2CCN(C)CC2)cc1)c1ccccc1 [Nintedanib] | 0.958 |
| CCS(=O)(=O)c1ccc2oc(-c3ccc4ccccc4c3)nc2c1 [Ezutromid] | 1.05 |
| COc1ccc(/C=C\c2cc(OC)c(OC)c(OC)c2)cc1OP(=O)(O)O [Fosbretabulin Disodium] | 0.329 |
| O=C(NCCS(=O)(=O)c1ccc(C(F)(F)F)cn1)c1ccc(Cl)cc1 | 1.07 |
| CC(C)CC(=O)Nc1n[nH]c2c1CN(C(=O)C1CCN(C)CC1)C2(C)C | 0.977 |
| COc1ccc(C=O)c(O)c1 [4-Methoxysalicylaldehyde] | 0.973 |
| Nc1nc(F)nc2c1ncn2[C@@H]1O[C@H](CO)[C@@H](O)[C@@H]1O [Fludarabine] | 1.12 |
| CC(=O)c1cnc2ccc(-c3cc(Cl)c(O)c(Cl)c3)nc2c1N[C@H]1CC[C@H](CN(C)C)CC1 | 0.657 |
| CC(=O)N1c2ccc(-c3ccc(C(=O)O)cc3)cc2[C@H](Nc2ccc(Cl)cc2)C[C@@H]1C | 0.864 |
| O=C1CN2Cc3c(ccc(Cl)c3Cl)N=C2N1 [Anagrelide] | 1.06 |
| COCCN1CCN(Cc2ccc(-c3n[nH]c4c3C(=O)c3c(NC(=O)NN5CCOCC5)cccc3-4)cc2)CC1 | 0.253 |
| CN(C)Cc1c(C(=O)NCCOc2ccc(C(=O)NO)cc2)oc2ccccc12 | 0.758 |
| NCCCNc1ccc(Nc2nccc(Nc3cc(C4CC4)[nH]n3)n2)cc1 | 0.735 |
| CN1CC[C@H](c2c(O)cc(O)c3c(=O)cc(-c4ccccc4Cl)oc23)[C@H](O)C1 [Flavopiridol hydrochloride] | 0.497 |
| COc1ccc(-c2cc(=O)c3c(O)cc(O)cc3o2)cc1O [Diosmetin] | 1.26 |
| Nc1nc(Cl)nc2c1ncn2[C@@H]1O[C@H](CO)[C@@H](O)[C@@H]1F [Clofarabine] | 0.151 |
